{"source": "patent US20260000782A1", "about": "“ITGB2-MEDIATED DRUG DELIVERY SYSTEM” (TWINPIG BIOLAB INC., priority 2022, published 2026)", "target": "T1, ITGB2 (Homo sapiens, UniProt P05107)", "T1 construct": "cell membrane proteins of macrophages were obtained using a cell membrane protein extraction kit; endogenous in cells; host or cells: THP-1 cells differentiated into M2 (and M0, M1) macrophages", "experiment": "Biotin-peptide pull-down of macrophage cell membrane proteins, LC-MS/MS proteomics", "format": "binding", "details": "cell membrane proteins of M0, M1, M2 macrophages, peptide-biotin 200 μg, 1 hour", "experimental": "To determine which protein of M2 macrophages was involved in the specific binding of melittin to M2 macrophages, biotin-conjugated melittin (melittin-biotin) was synthesized. THP-1 cells (5×10^6 cells) were differentiated into M0, M1, and M2 macrophages, and then collected using a scraper, washed by centrifugation (300×g, 5 min), and cell membrane proteins of macrophages were obtained using a cell membrane protein extraction kit (Thermo Fisher scientific). The proteins reacted with melittin-biotin (200 μg) in which biotin bound to melittin at room temperature (20 to 24° C.) for 1 hour, and then the proteins bound to melittin were obtained using a streptavidin resin (Thermo Fisher scientific). To remove the salt, 100 μl each of 100% methanol, 0.1% formic acid, and 80% CAN were added to an 18 Micro Spin-Column, and the sample was loaded onto the prepared column, and added with 50 μl of 0.1% formic acid to remove unnecessary substances. […] After desalting, the solution was completely removed by drying with a Speed-vac, and analyzed by LC-MS/MS using a UPLC-Exactive equipment (Thermo Fisher Scientific) under the conditions shown in Table 2 below. […] For data analysis, LC-MS/MS data for each sample were analyzed using Proteome Discoverer, and performed by LFQ (Label-Free Quantification) using a human database of Uniprot as the database. […]", "data": [{"smiles": "CC[C@H](C)[C@H](NC(=O)CN)C(=O)NCC(=O)N[C@@H](C)C(=O)N[C@H](C(=O)N[C@@H](CC(C)C)C(=O)N[C@@H](CCCCN)C(=O)N[C@H](C(=O)N[C@@H](CC(C)C)C(=O)N[C@H](C(=O)N[C@H](C(=O)NCC(=O)N[C@@H](CC(C)C)C(=O)N1CCC[C@H]1C(=O)N[C@@H](C)C(=O)N[C@@H](CC(C)C)C(=O)N[C@H](C(=O)N[C@@H](CO)C(=O)N[C@@H](Cc1c[nH]c2ccccc12)C(=O)N[C@H](C(=O)N[C@@H](CCCCN)C(=O)N[C@@H](CCCNC(=N)N)C(=O)N[C@@H](CCCCN)C(=O)N[C@@H](CCCNC(=N)N)C(=O)N[C@@H](CCC(N)=O)C(=O)N[C@@H](CCC(N)=O)C(N)=O)[C@@H](C)CC)[C@@H](C)CC)[C@@H](C)O)[C@@H](C)O)C(C)C)C(C)C", "note": "[melittin, Melittin]", "values": [{"measurement": "M2 macrophage membrane protein bound by biotin-conjugated peptide", "value": "interacted and bound with the membrane protein ITGB2 of M2 macrophages"}]}]}
